# According to PubChem BioAssay AID1454 (National Center for Advancing Translational Sciences (NCATS), 2008):
# About 550 (0.42%) of roughly 130,000 compounds were called active. Inconclusive results (about 4%) are left out. Calls follow the shape of the dose curve; as a rule, active = well fitted inhibition curve with a large enough effect; inconclusive = small, poorly fitted or top-dose-only effect, or effect the other way; inactive = flat fitted curve, though single readings scatter. The list shows a part of the results, in another mix than the full data. Where a structure was tested more than once in an assay, its records may differ in their call.
# Assay: qHTS Assay for Inhibitors of the ERK Signaling Pathway using a Homogeneous Screening Assay; Stimulation with EGF; also: nearly all actives have a fitted effect of over 55% in size;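 as to activity change, negative = inhibition: plate controls were stimulated vehicle wells for no effect and unstimulated vehicle basal for full effect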
# Settings: HEK293-V1b, EGF-stimulated phospho-ERK AlphaScreen; activity change, negative = inhibition: at the top concentration
# How it was run: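 Homogeneous cell-based phospho-ERK assay: HEK293/V1b cells in 1% FBS, compound 30 min then EGF 5 min, AlphaScreen luminescence. Activity normalized between DMSO and 25 nM EGF controls; AC50 from Hill modelling.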
# Potency is read from the fitted curve at half-maximal effect.
SMILES,Potency,"activity change, negative = inhibition"
CN1CCN(CCCN2c3ccccc3Sc3ccc(C(F)(F)F)cc32)CC1,inactive,
Cc1cc(C)[n+]2[nH]c(N)c(N=Nc3ccccc3)c2n1,,inactive: 3.58% [at 57.5 µM]
O=C(CCc1ccc(O)cc1)c1c(O)cc(O)cc1O,inactive,
O=C1c2ccc(O)c(O)c2C(=O)c2c(O)ccc(O)c21,active: 7.94 µM,
Oc1cc(O)c2c(c1)O[C@H](c1ccc(O)c(O)c1)[C@H](O)C2,inactive,
Nc1nc2ccc(OC(F)(F)F)cc2s1,inactive,
Cc1cccc2cc(/C=N/NC(=O)c3ccccc3O)c(Cl)nc12,active: 20 µM,
O=C(C1=C[C@H](c2coc3ccccc3c2=O)C[C@H](OCCCCO)O1)N1CCN(Cc2ccccc2)CC1,,inactive: -5.52% [at 57.5 µM]
COc1ccc(/C=C2/SC(=S)N(CCCC(=O)Nc3ccc(O)cc3)C2=O)cc1,,inactive: 4.05% [at 57.5 µM]
O=c1oc2ccccc2cc1-c1csc(Nc2ccc(O)cc2)n1,active: 39.8 µM,
COC1/C=C/OC2(C)Oc3c(C)c(O)c4c(O)c(c(/C=N/N5CCN(C)CC5)c(O)c4c3C2=O)NC(=O)/C(C)=C/C=C/C(C)C(O)C(C)C(O)C(C)C(OC(C)=O)C1C (configuration not stated),,inactive: -7.28%
C[C@@H](C(=O)O)c1cccc(C(=O)c2ccccc2)c1,,inactive: 6.18% [at 25.7 µM]
Cc1cc2c(Nc3ccccc3)ncnc2s1,active: 14.1 µM,
CN1CCc2cccc3c2[C@@H]1Cc1ccc(O)c(O)c1-3,inactive,
CN(C)CCOC(c1ccccc1)c1ccccc1,inactive,
Nc1ncnc2c1ncn2[C@@H]1O[C@H](CO)[C@@H](O)[C@H]1O,inactive,

SMILES,Potency,"activity change, negative = inhibition"
COc1ccc([C@H]2CC(=O)c3c(O)cc(O)cc3O2)cc1O,,inactive: 5.36% [at 57.5 µM]
CN(C)CCN(Cc1ccccc1)c1ccccn1,inactive,
Cc1ccc(-c2nnc(N3CCN(C(=O)COc4cccc(C)c4)CC3)c3ccccc23)cc1,active: 39.8 µM,
N[C@@H]1CONC1=O,inactive,
O=c1c(OC2OC(CO)C(O)C(O)C2O)c(-c2ccc(O)c(O)c2)oc2cc(O)cc(O)c12 (configuration not stated),,inactive: -3.68%
O=C(CCCN1C(=O)/C(=C/c2cccc(Br)c2)SC1=S)Nc1cccnc1,,inactive: 0.994%
O=C(O)/C=C/c1ccc(O)c(O)c1,inactive,
CSc1ccc2c(c1)C(N1CCN(C)CC1)Cc1ccccc1S2 (configuration not stated),,inactive: 20.5%
COc1ccc(/C=C2\SC(=O)N(CC(=O)NNC(=O)c3ccccc3O)C2=O)cc1OC,active: 12.6 µM,
CC(Cc1ccccc1)C(=O)N[C@@H](CO)Cc1ccccc1 (some centres not stated),,inactive: 5.31%
CCOc1ccc(-c2csc(/C(C#N)=C\c3ccc(O)c([N+](=O)[O-])c3)n2)cc1,active: 12.6 µM,
O=C(NCC1CC1)[C@H]1C[C@@H]1[C@H](NP(=O)(c1ccccc1)c1ccccc1)c1ccccc1,,inactive: 5.13%
CN1C[C@@H]2C(c3ccccc3)C3(c4ccc(C#N)cc4)CC2(C3)[C@H]1c1ccccc1 (some centres not stated),,inactive: 1.6%
O=C(O)[C@@H](O)c1ccccc1,,inactive: -2.04% [at 57.5 µM]
OCCOCCN1CCN(C2=Nc3ccccc3Sc3ccccc32)CC1,,inactive: 23.5%
Cn1cccc1/C=N/N1CCN(Cc2cccc3ccccc23)CC1,active: 17.8 µM,
